What was measured:
Magnaporthe grisea = format: in vivo; conditions: for Test A control value (blast on rice): 250 ppm spray, preventive, control value class; for Test A (control value class): Blast on rice, control value=100{1-(n/3)}
Phytophthora infestans = format: in vivo; conditions: for Test F control value (late blight on tomato): 250 ppm spray (2.5 ml/pot), preventive, 5-10 days after inoculation, control value class; for Test F (control value class): Late blight on tomato, 250 ppm spray, 2.5 ml/pot
[1] = test system: Colletotrichum orbiculare; conditions: 250 ppm spray (2.5 ml/pot), preventive; 6-10 days after inoculation; control value class
[2] = evaluated 5-10 days after inoculation

Row | Compound | Test A (control value class) (Magnaporthe grisea) | Test F (control value class) (Phytophthora infestans; [2]) | also measured
1 | COc1cc(OC)c(Cl)c(-c2ccc(=O)n(C)c2-c2c(F)cccc2Br)c1 [Compound 185] | – | – | Test A control value (blast on rice) (Magnaporthe grisea): H (H shows more than 50% of control values); Test F control value (late blight on tomato) (Phytophthora infestans): H (H shows more than 50% of control values); Test H control value (anthracnose on cucumber) [1]: H (H shows more than 50% of control values)
2 | CCN1C(=O)CCC(c2cc(OC)cc(OC)c2)=C1c1c(F)cc(Br)cc1F [Compound 186] | – | – | Test A control value (blast on rice) (Magnaporthe grisea): H (H shows more than 50% of control values); Test F control value (late blight on tomato) (Phytophthora infestans): H (H shows more than 50% of control values); Test H control value (anthracnose on cucumber) [1]: L (L shows 50% or less of control values)
3 | COc1cc(OC)cc(C2=C(c3c(F)cc(Br)cc3F)N(C)C(=O)CC2)c1 [Compound 187] | – | – | Test A control value (blast on rice) (Magnaporthe grisea): H (H shows more than 50% of control values); Test F control value (late blight on tomato) (Phytophthora infestans): H (H shows more than 50% of control values); Test H control value (anthracnose on cucumber) [1]: L (L shows 50% or less of control values)
4 | Cn1c(-c2c(F)cccc2F)c(-c2cccc(Cl)c2)ccc1=O [Compound 188] | – | – | Test A control value (blast on rice) (Magnaporthe grisea): H (H shows more than 50% of control values); Test F control value (late blight on tomato) (Phytophthora infestans): L (L shows 50% or less of control values); Test H control value (anthracnose on cucumber) [1]: L (L shows 50% or less of control values)
5 | Cn1c(-c2c(F)cccc2F)c(-c2cccc(Cl)c2)cc(Cl)c1=O [Compound 189] | – | – | Test A control value (blast on rice) (Magnaporthe grisea): H (H shows more than 50% of control values); Test F control value (late blight on tomato) (Phytophthora infestans): L (L shows 50% or less of control values); Test H control value (anthracnose on cucumber) [1]: L (L shows 50% or less of control values)
6 | Cn1c(-c2c(F)cccc2F)c(-c2cccc(Cl)c2)cc(Br)c1=O [Compound 190] | – | – | Test A control value (blast on rice) (Magnaporthe grisea): H (H shows more than 50% of control values); Test F control value (late blight on tomato) (Phytophthora infestans): L (L shows 50% or less of control values); Test H control value (anthracnose on cucumber) [1]: L (L shows 50% or less of control values)
7 | CN1C(=O)CCC(c2cccc(Cl)c2)=C1c1c(F)cccc1F [Compound 191] | – | – | Test A control value (blast on rice) (Magnaporthe grisea): L (L shows 50% or less of control values); Test F control value (late blight on tomato) (Phytophthora infestans): L (L shows 50% or less of control values); Test H control value (anthracnose on cucumber) [1]: L (L shows 50% or less of control values)
8 | COc1ccc(Cl)c(C2=C(c3c(F)cccc3F)N(CC(F)F)C(=O)CC2)c1 [Compound 192, 5-(2-chloro-5-methoxyphenyl)-1-(2,2-difluoroethyl)-6-(2,6-difluorophenyl)-3,4-dihydropyridine-2(1H)-one] | – | – | Test A control value (blast on rice) (Magnaporthe grisea): H (H shows more than 50% of control values); Test F control value (late blight on tomato) (Phytophthora infestans): L (L shows 50% or less of control values); Test H control value (anthracnose on cucumber) [1]: L (L shows 50% or less of control values)
9 | CCn1c(-c2c(F)cccc2F)c(-c2cc(OCCOC)ccc2Cl)ccc1=O [Compound 193] | – | – | Test A control value (blast on rice) (Magnaporthe grisea): H (H shows more than 50% of control values); Test F control value (late blight on tomato) (Phytophthora infestans): L (L shows 50% or less of control values); Test H control value (anthracnose on cucumber) [1]: H (H shows more than 50% of control values)
10 | Cn1c(-c2c(F)cccc2F)c(-c2ccc(Cl)cc2)cc(Cl)c1=O [Compound 285] | – | – | Test A control value (blast on rice) (Magnaporthe grisea): H (H shows more than 50% of control values); Test H control value (anthracnose on cucumber) [1]: H (H shows more than 50% of control values)
11 | CCn1c(-c2c(F)cc(OC)cc2F)c(-c2ccc(F)cc2Cl)cc(C)c1=O [Compound 599] | – | – | Test A (control value class, blast on rice) (Magnaporthe grisea; in vivo): H (H shows more than 50% of control values); Test F (control value class, late blight on tomato) (Phytophthora infestans; 250 ppm, sprayed 2.5 ml/pot before inoculation, evaluated 5-10 days after inoculation): L (L shows 50% or less of control values)
12 | Cn1c(-c2c(F)cc(F)cc2F)c(-c2cc(F)cc(F)c2)ccc1=O [Compound 800] | H (H shows more than 50% of control values) | L (L shows 50% or less of control values) | –
13 | CCn1c(-c2c(F)cccc2F)c(-c2cc(OCC#N)ccc2Cl)cc(C)c1=O [Compound 801] | H (H shows more than 50% of control values) | L (L shows 50% or less of control values) | –
14 | CCOc1ccc(Cl)c(-c2cc(C)c(=O)n(CC)c2-c2c(F)cccc2F)c1 [Compound 802] | H (H shows more than 50% of control values) | L (L shows 50% or less of control values) | –
15 | COc1cc(F)c(-c2c(-c3cc(F)cc(F)c3)ccc(=O)n2C)c(F)c1 [Compound 803] | H (H shows more than 50% of control values) | H (H shows more than 50% of control values) | –
16 | Cn1c(-c2c(F)cc(F)cc2F)c(-c2cc(F)cc(F)c2)cc(Cl)c1=O [Compound 804] | H (H shows more than 50% of control values) | L (L shows 50% or less of control values) | –
17 | Cn1c(-c2c(F)cc(F)cc2F)c(-c2cc(F)cc(F)c2)cc(Br)c1=O [Compound 805] | H (H shows more than 50% of control values) | L (L shows 50% or less of control values) | –
18 | CCn1c(-c2c(F)cc(F)cc2F)c(-c2cccc(O)c2Cl)cc(Cl)c1=O [Compound 806] | H (H shows more than 50% of control values) | H (H shows more than 50% of control values) | –
19 | COc1cc(F)c(-c2c(-c3cc(F)cc(F)c3)cc(Cl)c(=O)n2C)c(F)c1 [Compound 807] | H (H shows more than 50% of control values) | L (L shows 50% or less of control values) | –

Row | Compound | Test A (control value class) (Magnaporthe grisea) | Test F (control value class) (Phytophthora infestans; [2]) | also measured
20 | COc1cc(F)c(-c2c(-c3cc(F)cc(F)c3)cc(Br)c(=O)n2C)c(F)c1 [Compound 808] | H (H shows more than 50% of control values) | L (L shows 50% or less of control values) | –
21 | CCOc1cccc(-c2cc(Cl)c(=O)n(CC)c2-c2c(F)cc(F)cc2F)c1Cl [Compound 809] | H (H shows more than 50% of control values) | L (L shows 50% or less of control values) | –
22 | CCn1c(-c2c(F)cc(F)cc2F)c(-c2cccc(OCC#N)c2Cl)cc(Cl)c1=O [Compound 810] | H (H shows more than 50% of control values) | L (L shows 50% or less of control values) | –
23 | CCn1c(-c2c(F)cc(F)cc2F)c(-c2cccc(OCOC)c2Cl)cc(Cl)c1=O [Compound 811] | H (H shows more than 50% of control values) | L (L shows 50% or less of control values) | –
24 | CCn1c(-c2c(F)cc(F)cc2F)c(-c2cc(F)cc(F)c2Br)ccc1=O [Compound 812] | H (H shows more than 50% of control values) | L (L shows 50% or less of control values) | –
25 | CCn1c(-c2c(F)cc(F)cc2F)c(-c2cc(F)cc(F)c2Br)cc(Cl)c1=O [Compound 813] | H (H shows more than 50% of control values) | L (L shows 50% or less of control values) | –
26 | CCn1c(-c2c(F)cc(F)cc2F)c(-c2cc(F)cc(F)c2Br)cc(Br)c1=O [Compound 814] | H (H shows more than 50% of control values) | L (L shows 50% or less of control values) | –
27 | Cn1c(-c2c(F)cc(F)cc2F)c(-c2cc(F)cc(F)c2Br)ccc1=O [Compound 815] | H (H shows more than 50% of control values) | L (L shows 50% or less of control values) | –
28 | Cn1c(-c2c(F)cc(F)cc2F)c(-c2cc(F)cc(F)c2Br)cc(Cl)c1=O [Compound 816] | H (H shows more than 50% of control values) | L (L shows 50% or less of control values) | –
29 | Cn1c(-c2c(F)cc(F)cc2F)c(-c2cc(F)cc(F)c2Br)cc(Br)c1=O [Compound 817] | H (H shows more than 50% of control values) | L (L shows 50% or less of control values) | –
30 | CCn1c(-c2c(F)cc(OC)cc2F)c(-c2cc(F)cc(F)c2Br)ccc1=O [Compound 818] | H (H shows more than 50% of control values) | L (L shows 50% or less of control values) | –
31 | CCn1c(-c2c(F)cc(OC)cc2F)c(-c2cc(F)cc(F)c2Br)cc(Cl)c1=O [Compound 819] | H (H shows more than 50% of control values) | H (H shows more than 50% of control values) | –
32 | CCn1c(-c2c(F)cc(OC)cc2F)c(-c2cc(F)cc(F)c2Br)cc(Br)c1=O [Compound 820] | H (H shows more than 50% of control values) | L (L shows 50% or less of control values) | –
33 | CCn1c(-c2c(F)cc(F)cc2F)c(-c2ccccc2Cl)cc(I)c1=O [Compound 821] | H (H shows more than 50% of control values) | L (L shows 50% or less of control values) | –
34 | CCn1c(-c2c(F)cc(OC)cc2F)c(-c2ccccc2Cl)cc(I)c1=O [Compound 822] | H (H shows more than 50% of control values) | L (L shows 50% or less of control values) | –
35 | COc1cc(F)c(-c2c(-c3cc(F)cc(F)c3Br)ccc(=O)n2C)c(F)c1 [Compound 823] | H (H shows more than 50% of control values) | L (L shows 50% or less of control values) | –
36 | COc1cc(F)c(-c2c(-c3cc(F)cc(F)c3Br)cc(Cl)c(=O)n2C)c(F)c1 [Compound 824] | H (H shows more than 50% of control values) | L (L shows 50% or less of control values) | –
37 | COc1cc(F)c(-c2c(-c3cc(F)cc(F)c3Br)cc(Br)c(=O)n2C)c(F)c1 [Compound 825] | H (H shows more than 50% of control values) | L (L shows 50% or less of control values) | –

From patent publication US10299477B2 (priority 2015, dated 2019)
